# Measured values published in PubChem BioAssay (NCATS).
# Values joined by “and” are separate entries in the source; they are usually repeats but may differ in a detail not shown here. Equal entries are not always repeated. This list was built around the results that the source calls inconclusive (neither active nor inactive); the mix of calls is not that of the screen. Where the call is inconclusive, the potency comes from a doubtful curve fit. Active and inactive are the calls of the source. Unless noted, calls follow the shape of the dose curve; as a rule, active = well fitted inhibition curve with a large enough effect; inconclusive = small, poorly fitted or top-dose-only effect; inactive = no such curve, though single readings can be large or run the other way.
# How the values were obtained:
# [1] = molecular target: Aldehyde dehydrogenase, mitochondrial (Homo sapiens) (UniProt P05091); test: qHTS for Inhibitors of the Aldehyde Dehydrogenase Family (ALDH2) Confirmatory screens (AID 2061303; active = well fitted inhibition curve with a large enough effect; inconclusive = small, poorly fitted or top-dose-only effect; inactive = no such curve, though single readings can be large or run the other way; title and protocol of this record describe different tests; also: nearly all actives have a fitted effect of over 45% in size); conditions: ALDH inhibition qHTS; activity change, negative = inhibition: at 45.4 µM (top of the series)
# [2] = qHTS for Inhibitors of the Aldehyde Dehydrogenase Family (ALDH1A2, ALDH1A3, ALDH2, ALDH3A1) (AID 2061307); conditions: ALDH inhibition qHTS; activity change, negative = inhibition: at 50.3 µM (top of the series) unless noted; also: nearly all actives have a fitted effect of over 50% in size; as to potency: test system not described further here
# [3] = molecular target: Retinaldehyde dehydrogenase 3 (Homo sapiens) (UniProt P47895); test: qHTS for Inhibitors of the Aldehyde Dehydrogenase Family (ALDH1A3) Confirmatory screens (AID 2061311); conditions: activity change, negative = inhibition: at 46 µM (top of the series); also: nearly all actives have a fitted effect of over 60% in size
# [4] = molecular target: Retinal dehydrogenase 2 (Homo sapiens) (UniProt O94788); test: qHTS for Inhibitors of the Aldehyde Dehydrogenase Family (ALDH1A2) Confirmation screens (AID 2061314); conditions: activity, negative = inhibition: at 45.9 µM (top of the series) unless noted; also: nearly all actives have a fitted effect of over 65% in size
# [5] = molecular target: Retinaldehyde dehydrogenase 3 (Homo sapiens) (UniProt P47895); test: qHTS for Inhibitors of the Aldehyde Dehydrogenase Family (ALDH1A3) Primary screen (AID 2061315); conditions: ALDH inhibition qHTS; activity change, negative = inhibition: at 56 µM (top of the series) unless noted
# [6] = molecular target: Aldehyde dehydrogenase 1A1 (Homo sapiens) (UniProt P00352); test: qHTS for Inhibitors of the Aldehyde Dehydrogenase Family (ALDH1A1) Confirmatory screens (AID 2061316); conditions: activity change, negative = inhibition: at 47.3 µM (top of the series); also: nearly all actives have a fitted effect of over 65% in size
# Potency is read from the fitted curve at half-maximal effect; tags tell the direction and shape of the fitted curve.
Compound,Potency [1],Potency [2],Potency [3],Potency [4],Potency [5],Potency [6]
Cc1ccc(-c2cnc(N3CCC(C(N)=O)CC3)s2)cc1,active: 25.1 µM,active: 10.1 µM,"inconclusive: 12.7 µM [inhibitor, partial curve]","inconclusive: 15.9 µM [inhibitor, partial curve]","inconclusive: 28.2 µM [inhibitor, single point]","inconclusive: 15.9 µM [inhibitor, partial curve]"
O=C(NCCc1ccc2c(c1)OCO2)c1cc2sccc2[nH]1,"inconclusive: 7.94 µM [inhibitor, partial curve, poor fit]","inconclusive: 0.634 µM [inhibitor, full curve]","inconclusive: 10 µM [inhibitor, partial curve]","inconclusive: 1.79 µM [inhibitor, full curve]",inactive,"inconclusive: 10.1 µM [inhibitor, partial curve]"
COc1cc2c(cc1O)C1(Cc3ccc4c(c3C1O)OCO4)[N+](C)([O-])CC2 (centres undefined),"inconclusive: 4.4 µM [inhibitor, full curve]","inconclusive: 3.5 µM [inhibitor, partial curve]","inconclusive: 15.6 µM [inhibitor, partial curve]","inconclusive: 11.1 µM [inhibitor, partial curve]","inconclusive: 11.2 µM [inhibitor, single point]","inconclusive: 4.94 µM [inhibitor, partial curve]"
CC(=O)NC(c1cc(Cl)c2ccccc2c1O)C(C)C (centres undefined),"inconclusive: 12.7 µM [inhibitor, partial curve]","inconclusive: 26.9 µM [inhibitor, partial curve]",active: 8.96 µM,active: 20.1 µM,"inconclusive: 3.98 µM [inhibitor, full curve]","inconclusive: 10.1 µM [inhibitor, partial curve]"
N#Cc1ccc(CNc2nc(-c3ccccc3C(F)(F)F)nc3ccccc23)cc1,"inconclusive: 22.5 µM [inhibitor, partial curve, poor fit]",active: 17.9 µM,"inconclusive: 12.7 µM [inhibitor, partial curve]","inconclusive: 17.9 µM [inhibitor, partial curve]",inactive,active: 14.2 µM
CCOC(=O)C1CCN(C(=O)C(C)(C)NC(=O)Nc2ccc(N)cc2)CC1,"inconclusive: 15.9 µM [inhibitor, partial curve, poor fit]",inactive,"inconclusive: 17.9 µM [inhibitor, partial curve]","inconclusive: 14.2 µM [inhibitor, partial curve]","inconclusive: 22.4 µM [inhibitor, partial curve]","inconclusive: 17.9 µM [inhibitor, partial curve]"
CCOc1ccc(NC(=O)NCC2CCCN2c2ccc(OC)cc2)cc1 (centres undefined),"inconclusive: 5.65 µM [inhibitor, partial curve]","inconclusive: 7.12 µM [inhibitor, partial curve]","inconclusive: 28.3 µM [inhibitor, partial curve]",active: 14.2 µM,"inconclusive: 11.2 µM [inhibitor, partial curve] and inconclusive: 20 µM [inhibitor, partial curve] and inconclusive: 10 µM [inhibitor, partial curve]","inconclusive: 11.3 µM [inhibitor, partial curve]"
COc1cc(O)c(C(CC(=O)N2CCCC(CN3CCCCC3)C2)c2ccc3c(c2)OCO3)c(OC)c1 (centres undefined),inactive,"inconclusive: 3.66 µM [inhibitor, full curve, poor fit]","inconclusive: 51.7 µM [inhibitor, partial curve]","inconclusive: 51.7 µM [inhibitor, partial curve, poor fit]","inconclusive: 22.4 µM [inhibitor, partial curve, poor fit]","inconclusive: 23.1 µM [inhibitor, partial curve]"
c1csc(CNc2ccc(N3CCOCC3)cc2)c1,"inconclusive: 11.3 µM [inhibitor, partial curve]",inactive,"inconclusive: 28.3 µM [inhibitor, partial curve]",active: 22.5 µM,"inconclusive: 17.8 µM [inhibitor, partial curve, poor fit]","inconclusive: 20.1 µM [inhibitor, partial curve]"
